Experimental data: PubChem BioAssay (NCI)
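48-hour exposure; five concentrations; linearly interpolated endpoints. GI50: concentration for 50% inhibition of growth. TGI: total growth inhibition.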

These compounds were tested on NCI-H322M lung (assay: NCI tumour cell line growth inhibition, 48 h).

Point of comparison: `Clc1ccc(-c2nc3c4c(-c5ccccc5)c(-c5ccccc5)n(Cc5ccccc5)c4ncn3n2)cc1`, GI50 27.5 µM. Against it:
- CCCCCCCCCCCCCCCCCCCC(=O)NCCc1c[nH]c2ccc(OC(=O)NOCCOCCOCCOCCOCCOCCOCCOCCOCCOCCOCCOCCOCCOCCOCCOCCOCCOCCOCCOCCOCCOCCOC)cc12 — 1.8-fold lower, 15.3 µM
- O=C(Cn1c(-c2ccccc2)nc2ccccc21)N=Nc1c(O)[nH]c2ccc(Cl)cc12 — 1.9-fold lower, 14.8 µM
- COc1cnc2c(c1)C(=O)c1c-2n(CCCNC(C)C)c(=O)c2cc(OC)c(OC)cc12 — 6.3-fold lower, 4.38 µM

Point of comparison: `O=C(Cn1c(-c2ccccc2)nc2ccccc21)N=Nc1c(O)[nH]c2ccc(Cl)cc12`, TGI 29.4 µM. Against it:
- CCCCCCCCCCCCCCCCCCCC(=O)NCCc1c[nH]c2ccc(OC(=O)NOCCOCCOCCOCCOCCOCCOCCOCCOCCOCCOCCOCCOCCOCCOCCOCCOCCOCCOCCOCCOCCOCCOC)cc12 — within 1.5-fold, 32.5 µM
- COc1cnc2c(c1)C(=O)c1c-2n(CCCNC(C)C)c(=O)c2cc(OC)c(OC)cc12 — 1.5-fold lower, 19.5 µM
- Clc1ccc(-c2nc3c4c(-c5ccccc5)c(-c5ccccc5)n(Cc5ccccc5)c4ncn3n2)cc1 — higher, > 100 µM
